Paper PMC4336329 (PLoS ONE, 2015)
Screen size: about 310,000 compounds; about 14,000 (4.5%) showed an effect of 50% or more. Effects have a minus sign here. The list shows a part of the results.

The molecules below were run against human ether-à-go-go-related gene (hERG) potassium channel (human, UniProt Q12809) (assay: primary screen, population patch clamp on CHO cells stably expressing hERG).
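Note: peak tail current of the secondary pulse compared with the same well before compound.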

Sequence of human ether-à-go-go-related gene (hERG) potassium channel (Q12809 whole entry, looked up): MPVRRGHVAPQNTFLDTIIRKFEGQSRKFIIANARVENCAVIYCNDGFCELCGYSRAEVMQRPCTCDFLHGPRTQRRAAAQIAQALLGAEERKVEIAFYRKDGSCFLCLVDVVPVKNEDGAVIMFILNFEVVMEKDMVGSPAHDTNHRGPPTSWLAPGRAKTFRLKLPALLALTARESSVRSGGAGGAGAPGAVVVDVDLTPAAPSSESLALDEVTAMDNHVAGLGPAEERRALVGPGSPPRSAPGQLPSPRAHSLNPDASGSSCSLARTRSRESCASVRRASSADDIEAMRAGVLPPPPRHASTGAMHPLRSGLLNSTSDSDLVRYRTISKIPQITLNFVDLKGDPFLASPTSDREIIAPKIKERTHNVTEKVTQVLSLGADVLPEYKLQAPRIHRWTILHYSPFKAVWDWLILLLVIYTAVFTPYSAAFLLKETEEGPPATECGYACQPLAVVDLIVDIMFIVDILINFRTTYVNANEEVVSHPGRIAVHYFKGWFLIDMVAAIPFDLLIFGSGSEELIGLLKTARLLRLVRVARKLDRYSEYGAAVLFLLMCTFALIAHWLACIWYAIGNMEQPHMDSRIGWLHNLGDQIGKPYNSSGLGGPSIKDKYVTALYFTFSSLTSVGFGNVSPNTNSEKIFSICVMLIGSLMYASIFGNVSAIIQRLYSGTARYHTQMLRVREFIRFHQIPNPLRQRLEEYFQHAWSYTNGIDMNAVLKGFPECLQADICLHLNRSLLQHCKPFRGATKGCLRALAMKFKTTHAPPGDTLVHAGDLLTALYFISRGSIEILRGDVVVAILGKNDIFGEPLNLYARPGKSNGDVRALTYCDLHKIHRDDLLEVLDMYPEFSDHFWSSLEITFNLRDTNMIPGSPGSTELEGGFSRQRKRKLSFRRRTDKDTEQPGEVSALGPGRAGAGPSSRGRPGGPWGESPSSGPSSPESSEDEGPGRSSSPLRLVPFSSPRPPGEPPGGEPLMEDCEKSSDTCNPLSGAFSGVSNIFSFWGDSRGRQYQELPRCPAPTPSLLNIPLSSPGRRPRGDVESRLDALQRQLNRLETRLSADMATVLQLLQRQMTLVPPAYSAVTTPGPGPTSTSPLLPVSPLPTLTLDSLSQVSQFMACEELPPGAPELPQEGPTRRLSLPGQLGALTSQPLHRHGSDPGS

Structure (SMILES) | hERG current change (%, negative = inhibition) at 10uM
CC(OC(=O)c1ccc(S(=O)(=O)N(C)C)cc1)C(=O)Nc1ccc(Cl)cn1 (stereo not shown) | 15.7%
COC(=O)C1(C)NC(c2ccco2)C2C(=O)N(c3ccc(C)cc3)C(=O)C21 (stereo not shown) | -22.5%
Cc1nc(N2CCN(S(=O)(=O)c3ccc(F)cc3)CC2)c2c(-c3cccs3)csc2n1 | 11.6%
CN(C)C(=O)COc1ccc2ccc(=O)oc2c1 | -5.56%
COC(=O)C(O)(c1ccc(N(C)C(=O)COc2ccccc2)cc1)C(F)(F)F (stereo not shown) | -0.114%
CCOC(=O)N1CCN(S(=O)(=O)c2ccc(C(=O)Nc3sc4c(c3C(N)=O)CCN(CC)C4)cc2)CC1 | 4.36%
Oc1ccc2ccccc2c1CNc1ccc(Br)cc1 | 18.7%
Cc1cc(C)c(OCC(=O)N(Cc2ccc(N(C)C)cc2)C2CCS(=O)(=O)C2)c(C)c1 (stereo not shown) | -19.5%
O=C(Cc1c(F)cccc1Cl)Nc1ccc(S(=O)(=O)N2CCCC2)cc1 | 2.98%
Cc1ccc(NC(=O)C2CCCN2S(=O)(=O)c2ccc3c(c2)n(C)c(=O)c(=O)n3C)cc1C (stereo not shown) | 8.25%
O=C(Cn1nc(-c2ccc3c(c2)OCCO3)ccc1=O)Nc1cccc(NC(=O)c2ccccn2)c1 | 14.3%
CCOC(=O)CN1C(=O)S/C(=C/c2ccc3c(c2)n(C)c(=O)n3C)C1=O | 2.62%
O=C(NCc1ccccc1Cl)c1ccc(CS(=O)Cc2ccc(Cl)cc2)o1 (stereo not shown) | -46.9%
O=C(CC1CCCCC1)NCCS(=O)(=O)N1CCN(c2ccccc2)CC1 | 3.95%
CS(=O)(=O)N(CC(=O)Nc1cc(Cl)ccc1Cl)c1ccccc1Cl | 10.6%
O=C(COc1ccccc1)N1CCN(c2ncccn2)CC1 | 10.5%
Cc1cc(C)c(S(=O)(=O)n2ccc(-c3ccc(OCCN(C)c4ccccn4)cc3)n2)c(C)c1 | 0.97%
COc1ccc(CCNC(=O)c2ccc3c(c2)NC(=O)C(N2CCOCC2)S3)cc1OC (stereo not shown) | -9.48%
Cc1ccc(-c2n[nH]c(=O)c3ccccc23)cc1S(=O)(=O)N(C)C | 5.85%
CN(C)S(=O)(=O)c1cccc2c1C(=O)c1ccccc1C2=O | -17.2%
Cn1c(=O)n(C)c2cc(NC(=O)c3ccc(F)cc3)ccc21 | -1.78%
Cn1c(SCC(=O)NCc2ccc(F)cc2)nc2ccccc21 | -36.4%

Structure (SMILES) | hERG current change (%, negative = inhibition) at 10uM
O=C(NCc1ccc(F)cc1)C1(S(=O)(=O)c2ccc(Cl)cc2)CC1 | 9.35%
Cc1nn(C)c(C)c1CNC(=O)c1cc2n(n1)C(C(F)(F)F)CC(c1cccs1)N2 (stereo not shown) | 4.65%
Cn1c2ccccc2c2nnc(SCC(=O)Nc3cccc(C(=O)O)c3)nc21 | 5.62%
O=C1C2=C(Nc3ccccc3SC2c2ccco2)c2ccccc21 (stereo not shown) | 9.09%
O=C(c1cc2ccccc2o1)N1CCN(S(=O)(=O)c2ccc(Cl)s2)CC1 | 11.9%
CCn1cc(C(=O)Nc2ccc(OC)c(S(=O)(=O)N3CCCCC3)c2)c(=O)c2ccc(C)nc21 | 10.5%
O=C(c1ccc(F)cc1)c1cc2ccccc2o1 | -0.588%
Cc1ccc(C(=O)Nc2c3c(nn2C(C)(C)C)CS(=O)(=O)C3)cc1C | -6.24%
COc1ccc(C(=O)NCCN2C(=O)S/C(=C\c3cccnc3)C2=O)cc1[N+](=O)[O-] | -63.8%
CCC1OC(=O)C(C)C(OC2C[C@@](C)(OC)C(O)C(C)O2)C(C)C(O[C@@H]2OC(C)CC(N(C)C)C2O)[C@](C)(O)CC(C)C(=NOCOCCOC)C(C)C(O)[C@]1(C)O (stereo partly shown) | 18.8%
CC(C)Cn1c(=O)c2ccccc2n2c(CCC(=O)O)nnc12 | 21.5%
O=C(N/N=C/c1ccc([N+](=O)[O-])cc1)C(=O)N1CCCC1 | 13.5%
COCC1CCN(C(=O)c2cc(COc3cncc(Cl)c3)on2)C1 (stereo not shown) | 5.09%
CCOc1ccc(NC(=O)CSc2nc3[nH]ncc3c(=O)n2-c2ccccc2OC)cc1 | 3.8%
CN(C)c1nnnn1-c1ccc(OC(F)(F)F)cc1 | -9.73%
COc1ccc(-n2nnnc2S(=O)(=O)CC(=O)N2CCCCC2)cc1 | -15.2%
CCC(=NCc1cccnc1)c1c(O)n(C2CCCCC2)c(=O)[nH]c1=O | -44.9%
O=C(Nc1ccccc1)c1ccc(NCCN2CCOCC2)c(S(=O)(=O)N2CCOCC2)c1 | -32.8%
COC(=O)C1=C(C)OC(N)=C(C#N)C1c1ccccc1F (stereo not shown) | -8.34%
CCOCC(=O)Nc1cccc(-c2nc3cccnc3s2)c1C | 1.76%
Cc1cc(C(=O)N/N=C/C=C/c2ccccc2[N+](=O)[O-])c(C)o1 | 6.36%
COC(=O)C1(CC2CC(c3ccc(Cl)cc3)=NO2)CCN(C(=O)OC(C)(C)C)CC1 (stereo not shown) | -10.3%

Structure (SMILES) | hERG current change (%, negative = inhibition) at 10uM
O=C1C(=C2SCCCS2)CC/C1=C\c1ccc(F)cc1 | 15%
Cc1cccnc1NC(=O)c1cccc(S(=O)(=O)N2CCCc3ccccc32)c1 | -24.3%
Cc1ccc(CN2CCNC(=O)C2CC(=O)NCc2cc(C)n(C)n2)cc1 (stereo not shown) | 5.76%
COCc1nnc(NC(=O)c2ccc(Cl)cc2[N+](=O)[O-])s1 | 15.5%
O=C(CNS(=O)(=O)c1c(Cl)cccc1Cl)OCC(=O)N1CCN(c2ccccc2)CC1 | -29.5%
CCOc1ccc(CC(=N)C2=C(O)CC(C)(C)CC2=O)cc1OCC | -7.44%
O=C(C1CCN(S(=O)(=O)c2ccccc2)CC1)N1CCC2(CC1)OCCO2 | 13.2%
Cc1nn(C)c(Oc2ccccc2)c1CCNC(=O)C(C)(C)C | 9.33%
COc1ccc(OC)c(S(=O)(=O)NC(N)=NCCc2ccccc2OC)c1 | 9.89%
COc1ccccc1-c1nc(NC(C)=O)n[nH]1 | 16.4%
O=C(c1[nH]nc2c1CCc1ccccc1-2)N1CCN(Cc2ccc3c(c2)OCO3)CC1 | -26.9%
COCCN(C(=O)CCc1nnc(Cc2c[nH]c3ccccc23)o1)C(C)C | 10.5%
O=C(OCc1cncs1)c1ccccc1Cl | 6.6%
Fc1ccccc1-c1n[nH]c(=S)n1CC1CCCO1 (stereo not shown) | 17.5%
COc1ccc(Br)cc1C(=O)Nc1ccc(C(=O)O)cc1 | 11.7%
COc1cc(NC(=O)c2cc([N+](=O)[O-])ccc2N2CCOCC2)ccc1NC(=O)c1ccco1 | -6.66%
Cc1cc2oc(=O)cc(-c3cc4ccccc4o3)c2cc1OC(=O)N(C)C | 12.7%
c1ccc(-c2csc3ncnc(N4CCN(Cc5ccc6c(c5)OCO6)CC4)c23)cc1 | -57.6%
Fc1ccc(CSc2nc3ccccc3[nH]2)cc1 | -20.9%
CCC(Sc1nc(-c2ccccc2)cc(=O)[nH]1)C(=O)O (stereo not shown) | 2.59%
CN(C1CCS(=O)(=O)C1)S(=O)(=O)c1ccccc1 (stereo not shown) | 12.8%
CCOc1ccccc1N1CC(O)=C(c2nc3ccccc3s2)C1=N | -8.81%

Structure (SMILES) | hERG current change (%, negative = inhibition) at 10uM
COc1ccccc1NC(=O)CSc1nc2ccccc2c(=O)n1CC1CCCO1 (stereo not shown) | 2.49%
FC(F)(F)c1ccc(N2CCN(c3cc(-c4ccccc4)nc4ncnn34)CC2)nc1 | -65.1%
O=C(O)c1ccccc1-n1cccc1C(=O)O | 15.4%
Cc1[nH]nc(-c2ccc(O)cc2O)c1Oc1ccccc1 | -29.9%
Cc1ccc(Nc2ncnc(-n3cccc3)n2)cc1Cl | 8.65%
Cc1ccc(CN2CC(C(=O)N3CC(C)CC(C)C3)CC2=O)cc1 (stereo not shown) | -6.13%
Cc1sc(NC(=O)CCCC(=O)O)c(C(N)=O)c1-c1ccccc1 | 15.8%
Cc1ccc(C(=O)Nc2cc3ccccc3oc2=O)cc1 | 9.74%
O=C1CCCCN1CC(=O)N1CCCC(Nc2ccc(F)c(F)c2)C1 (stereo not shown) | -0.0134%
COc1ccc(NC(=O)c2cccc(C(=O)Nc3ccc(OC)cc3)n2)cc1 | 8.48%
Cc1ccc(S(=O)(=O)NCCc2cccs2)cc1 | -15.3%
CC1C(=O)Nc2ccc(S(=O)(=O)N3CCc4ccccc4C3)cc2NC1=O (stereo not shown) | -11.3%
CC(C)NS(=O)(=O)c1ccc(OCC(=O)NC(C)c2ccccc2)cc1 (stereo not shown) | -18.3%
O=C(CCC(=O)N1CCN(C2CCCC2)CC1)Nc1nnc(C(F)(F)F)s1 | 5.49%
O=C(Nc1ccccc1)N1CCN(c2nc(-c3ccccc3)ns2)CC1 | -27.8%
CC(Sc1nnnn1C1CC1)C(=O)N1CC(=O)Nc2ccccc21 (stereo not shown) | 20.2%
COC(=O)CCCC[C@H]1SC[C@H]2NC(=O)N[C@]21O | 3.84%
COc1cccc(-n2nnc3c(=O)n(Cc4ccc(Br)cc4)cnc32)c1 | 1.87%
CCOc1c2ccc(C(=O)NCC34CC5CC(CC(C5)C3)C4)cc2nn1CC | -22.9%
